Results reported in PMC9911399, “Two distinct binding modes provide the RNA-binding protein RbFox with extraordinary sequence specificity”.
Numbering of substitutions follows the chain as printed; changes in the protein carry UniProt numbers. The list shows a part of the results.

B1: GCGCGUC (DNA:RNA)
RNA: GGGAGACCGGAAUUCAGAUUGUCCGCGCGUCUUAAAUCCCGUCGUAGCCACCA
DNA 1: CAATCTGAATTCCGGTCTCCC
DNA 2: TGGTGGCTACGACGGGATT
B2: UCCAAAA (DNA:RNA)
RNA: B1 RNA with G25U, G27C, C28A, G29A, U30A, C31A
DNA 1: CAATCTGAATTCCGGTCTCCC
DNA 2: TGGTGGCTACGACGGGATT
B3: CAGUUGC (DNA:RNA)
RNA: B1 RNA with G25C, C26A, C28U, G29U, U30G
DNA 1: CAATCTGAATTCCGGTCTCCC
DNA 2: TGGTGGCTACGACGGGATT
B4: AGCCUAG (DNA:RNA)
RNA: B1 RNA with G25A, C26G, G27C, G29U, U30A, C31G
DNA 1: CAATCTGAATTCCGGTCTCCC
DNA 2: TGGTGGCTACGACGGGATT
B5: UGGUUUG (DNA:RNA)
RNA: B1 RNA with G25U, C26G, C28U, G29U, C31G
DNA 1: CAATCTGAATTCCGGTCTCCC
DNA 2: TGGTGGCTACGACGGGATT
B6: GUCAGGU (DNA:RNA)
RNA: B1 RNA with C26U, G27C, C28A, U30G, C31U
DNA 1: CAATCTGAATTCCGGTCTCCC
DNA 2: TGGTGGCTACGACGGGATT
B7: GGAUUCA (DNA:RNA)
RNA: B1 RNA with C26G, G27A, C28U, G29U, U30C, C31A
DNA 1: CAATCTGAATTCCGGTCTCCC
DNA 2: TGGTGGCTACGACGGGATT
B8: UUUUGUG (DNA:RNA)
RNA: B1 RNA with G25U, C26U, G27U, C28U, C31G
DNA 1: CAATCTGAATTCCGGTCTCCC
DNA 2: TGGTGGCTACGACGGGATT
B9: UGAACCA (DNA:RNA)
RNA: GGGAGACCGGAAUUCAGAUUGUCCUGAACCAUUAAAUCCCGUCGUAGCCACCA
DNA 1: CAATCTGAATTCCGGTCTCCC
DNA 2: TGGTGGCTACGACGGGATT
B10: AGGGACA (DNA:RNA)
RNA: B9 RNA with U25A, A27G, A28G, C29A
DNA 1: CAATCTGAATTCCGGTCTCCC
DNA 2: TGGTGGCTACGACGGGATT
B11: ACGUAGG (DNA:RNA)
RNA: B1 RNA with G25A, C28U, G29A, U30G, C31G
DNA 1: CAATCTGAATTCCGGTCTCCC
DNA 2: TGGTGGCTACGACGGGATT
B12: UUAUACG (DNA:RNA)
RNA: B9 RNA with G26U, A28U, C29A, A31G
DNA 1: CAATCTGAATTCCGGTCTCCC
DNA 2: TGGTGGCTACGACGGGATT
B13: AGUUUGU (DNA:RNA)
RNA: B9 RNA with U25A, A27U, A28U, C29U, C30G, A31U
DNA 1: CAATCTGAATTCCGGTCTCCC
DNA 2: TGGTGGCTACGACGGGATT
B14: UAGAAGU (DNA:RNA)
RNA: B9 RNA with G26A, A27G, C29A, C30G, A31U
DNA 1: CAATCTGAATTCCGGTCTCCC
DNA 2: TGGTGGCTACGACGGGATT
B15: GAUGUCC (DNA:RNA)
RNA: B1 RNA with C26A, G27U, C28G, G29U, U30C
DNA 1: CAATCTGAATTCCGGTCTCCC
DNA 2: TGGTGGCTACGACGGGATT
B16: UCGCUCC (DNA:RNA)
RNA: B1 RNA with G25U, G29U, U30C
DNA 1: CAATCTGAATTCCGGTCTCCC
DNA 2: TGGTGGCTACGACGGGATT
B17: CAGCACA (DNA:RNA)
RNA: B1 RNA with G25C, C26A, G29A, U30C, C31A
DNA 1: CAATCTGAATTCCGGTCTCCC
DNA 2: TGGTGGCTACGACGGGATT
B18: UGAUGAC (DNA:RNA)
RNA: B9 RNA with A28U, C29G, C30A, A31C
DNA 1: CAATCTGAATTCCGGTCTCCC
DNA 2: TGGTGGCTACGACGGGATT
B19: GCGGGCG (DNA:RNA)
RNA: B1 RNA with C28G, U30C, C31G
DNA 1: CAATCTGAATTCCGGTCTCCC
DNA 2: TGGTGGCTACGACGGGATT
B20: CAUUCAC (DNA:RNA)
RNA: B1 RNA with G25C, C26A, G27U, C28U, G29C, U30A
DNA 1: CAATCTGAATTCCGGTCTCCC
DNA 2: TGGTGGCTACGACGGGATT
B21: AUAUCAC (DNA:RNA)
RNA: B9 RNA with U25A, G26U, A28U, C30A, A31C
DNA 1: CAATCTGAATTCCGGTCTCCC
DNA 2: TGGTGGCTACGACGGGATT
B22: UAGACAA (DNA:RNA)
RNA: B9 RNA with G26A, A27G, C30A
DNA 1: CAATCTGAATTCCGGTCTCCC
DNA 2: TGGTGGCTACGACGGGATT
B23: ACACCGU (DNA:RNA)
RNA: B1 RNA with G25A, G27A, G29C, U30G, C31U
DNA 1: CAATCTGAATTCCGGTCTCCC
DNA 2: TGGTGGCTACGACGGGATT
B24: AGCGAAA (DNA:RNA)
RNA: B9 RNA with U25A, A27C, A28G, C29A, C30A
DNA 1: CAATCTGAATTCCGGTCTCCC
DNA 2: TGGTGGCTACGACGGGATT
B25: CGACAGG (DNA:RNA)
RNA: B9 RNA with U25C, A28C, C29A, C30G, A31G
DNA 1: CAATCTGAATTCCGGTCTCCC
DNA 2: TGGTGGCTACGACGGGATT
B26: CAAACCU (DNA:RNA)
RNA: B9 RNA with U25C, G26A, A31U
DNA 1: CAATCTGAATTCCGGTCTCCC
DNA 2: TGGTGGCTACGACGGGATT
B27: CAAUCUU (DNA:RNA)
RNA: B9 RNA with U25C, G26A, A28U, C30U, A31U
DNA 1: CAATCTGAATTCCGGTCTCCC
DNA 2: TGGTGGCTACGACGGGATT
B28: GAGUUCC (DNA:RNA)
RNA: B1 RNA with C26A, C28U, G29U, U30C
DNA 1: CAATCTGAATTCCGGTCTCCC
DNA 2: TGGTGGCTACGACGGGATT
B29: UCCGUAU (DNA:RNA)
RNA: B1 RNA with G25U, G27C, C28G, G29U, U30A, C31U
DNA 1: CAATCTGAATTCCGGTCTCCC
DNA 2: TGGTGGCTACGACGGGATT
B30: CUCAGUU (DNA:RNA)
RNA: B1 RNA with G25C, C26U, G27C, C28A, C31U
DNA 1: CAATCTGAATTCCGGTCTCCC
DNA 2: TGGTGGCTACGACGGGATT
B31: GAUAAUU (DNA:RNA)
RNA: B1 RNA with C26A, G27U, C28A, G29A, C31U
DNA 1: CAATCTGAATTCCGGTCTCCC
DNA 2: TGGTGGCTACGACGGGATT

Target: T1, RBFOX1 RRM RbFoxmut (Fox-RRM*) (Homo sapiens, UniProt Q9NWB1 109-208, R118D;E147R;N151S;E152T)
T1 sequence: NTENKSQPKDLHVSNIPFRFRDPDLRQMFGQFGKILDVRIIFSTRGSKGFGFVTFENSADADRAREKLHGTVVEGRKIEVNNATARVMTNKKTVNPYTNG
Experiment: EMSA; HiTS-Eq, 1 nM pool, 10 min; buffer printed only for the single-RNA assays: 10 mM Tris pH 7.5, 150 mM NaCl, 3.4 mM EDTA, 0.001% NP-40, 30 C
Details: tags: His6 N-terminal (pET28a); label: 5' 32P
Procedure, shortened: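 These values rest on relative association constants, computed from read-count changes of each RNA species versus the control reaction and normalised to the cognate motif. Reads came from free RNA recovered by 8% native PAGE after purified RbFox RRM (wild type or mutant) at increasing concentrations was equilibrated for 10 min in 50 µL with 1 nM of a 5′-radiolabelled pool with 7 randomized nucleotides and DNA-annealed flanks.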

Row | Binder | binding signal
1 | B1 | 0.113 KA relative to UGCAUGU
2 | B2 | 0.0691 KA relative to UGCAUGU
3 | B3 | 0.106 KA relative to UGCAUGU
4 | B4 | 0.0894 KA relative to UGCAUGU
5 | B5 | 0.874 KA relative to UGCAUGU
6 | B6 | 0.0959 KA relative to UGCAUGU
7 | B7 | 0.137 KA relative to UGCAUGU
8 | B8 | 0.189 KA relative to UGCAUGU
9 | B9 | 0.0816 KA relative to UGCAUGU
10 | B10 | 0.0746 KA relative to UGCAUGU
11 | B11 | 0.113 KA relative to UGCAUGU
12 | B12 | 0.104 KA relative to UGCAUGU
13 | B13 | 0.218 KA relative to UGCAUGU
14 | B14 | 0.097 KA relative to UGCAUGU
15 | B15 | 0.0533 KA relative to UGCAUGU
16 | B16 | 0.0504 KA relative to UGCAUGU

Row | Binder | binding signal
17 | B17 | 0.0719 KA relative to UGCAUGU
18 | B18 | 0.107 KA relative to UGCAUGU
19 | B19 | 0.12 KA relative to UGCAUGU
20 | B20 | 0.108 KA relative to UGCAUGU
21 | B21 | 0.113 KA relative to UGCAUGU
22 | B22 | 0.0308 KA relative to UGCAUGU
23 | B23 | 0.0982 KA relative to UGCAUGU
24 | B24 | 0.139 KA relative to UGCAUGU
25 | B25 | 0.0877 KA relative to UGCAUGU
26 | B26 | 0.104 KA relative to UGCAUGU
27 | B27 | 0.0518 KA relative to UGCAUGU
28 | B28 | 0.0447 KA relative to UGCAUGU
29 | B29 | 0.0976 KA relative to UGCAUGU
30 | B30 | 0.0603 KA relative to UGCAUGU
31 | B31 | 0.0624 KA relative to UGCAUGU
